Assay results reported in US20140087362A1 (priority 2012, published 2014).

Key:
[1] = system: GI-101A cells (unsorted, ALDH1+ sorted, ALDH1− sorted); assay: MTT cell viability after 4-day treatment with chemotherapeutic agents; conditions: for viability at 0.1 µM / viability at 1 µM / viability at 10 µM / viability at 100 µM / viability at 1000 µM / viability at 0.01 µM: Homo sapiens, 96 h; for viability at 1000 µM: 1 mM
ALDH1 = assay: ALDEFLUOR assay with or without DEAB; format: cell-based, human; conditions: GI-101A cells
Method: Aldehyde dehydrogenase (ALDH1) is a useful marker for isolating primitive stem cell populations including normal human mammary stem and progenitor cells as well as transformed tumor-initiating stem cells. In this example, GI-101A, MCF7, MDA-MB-231, Hs 578T, and SUM139PT breast cancer cell lines were tested for activity of the ALDH1 marker using a commercial assay to detect ALDH1 expression and thereby identify tumor stem cells (the ALDEFLUOR® assay (available from Stemcell™ Technologies, Vancouver BC, CA; see Ginestier et al. (2007) Cell Stem Cell 1(5):555-567)). […] The ALDH substrate fluoresces upon cleavage by ALDH.
ALDEFLUOR® assay fluorescence was excited at 488 nm and fluorescence emission was detected using a standard FITC 530/30 band pass filter. […]
To supplement the flow cytometric analysis, the presence of ALDH in GI-101A was assessed visually by fluorescence microscopy. […] Phase contrast and fluorescent images of the cells were taken using a fluorescence microscope, equipped with the appropriate filters and a digital camera, using a 100× objective.
First an ALDEFLUOR assay was performed on GI-101 cells in the presence or absence of DEAB inhibitor as described in Example 21. […] The cells were resuspended in 400 μL it staining buffer and kept on ice until analyzed by flow cytometry.

[2] = system: EMT-induced GI-101A cells; assay: Chemoresistance of EMT induced GI-101A cells, MTT; conditions: 4 days
[3] = read-out: Cell Viability (%) Following 4-Day Treatment, ALDH1+, 0.1 μM
[4] = read-out: Cell Viability (%) Following 4-Day Treatment, ALDH1+, 1 μM
[5] = read-out: Cell Viability (%) Following 4-Day Treatment, ALDH1+, 10 μM
[6] = read-out: Cell Viability (%) Following 4-Day Treatment, ALDH1+
[7] = read-out: Cell Viability (%) Following 4-Day Treatment, ALDH1−, 0.1 μM
[8] = read-out: Cell Viability (%) Following 4-Day Treatment, ALDH1−, 1 μM
[9] = read-out: Cell Viability (%) Following 4-Day Treatment, ALDH1−, 10 μM
[10] = read-out: Cell Viability (%) Following 4-Day Treatment, ALDH1−
[11] = read-out: Cell Viability (%) Following 4-Day Treatment, Unsorted, 0.1 μM
[12] = read-out: Cell Viability (%) Following 4-Day Treatment, Unsorted, 1 μM
[13] = read-out: Cell Viability (%) Following 4-Day Treatment, Unsorted

O=c1[nH]cc(F)c(=O)[nH]1 [5-FU, 5-fluorouracil]
viability at 0.1 µM [1, 3]: 95%
viability at 1 µM [1, 4]: 90%
viability at 10 µM [1, 5]: 100%
viability at 100 µM ([1]; read-out: Cell Viability (%) Following 4-Day Treatment, ALDH1+, 100 μM): 75%
viability at 1000 µM [1, 6]: 5%
viability at 0.1 µM [1, 7]: 60%
viability at 1 µM [1, 8]: 37%
viability at 10 µM [1, 9]: 62%
viability at 100 µM ([1]; read-out: Cell Viability (%) Following 4-Day Treatment, ALDH1−, 100 μM): 35%
viability at 1000 µM [1, 10]: 5%
viability at 0.1 µM [1, 11]: 126%
viability at 1 µM [1, 12]: 67%
viability at 100 µM ([1]; read-out: Cell Viability (%) Following 4-Day Treatment, Unsorted, 100 μM): 55%
viability at 1000 µM [1, 13]: 5%

N.N.O=C([O-])C1(C(=O)[O-])CCC1.[Pt+2] [Carboplatin, carboplatin]
Cell Viability (%) Following 4-Day Treatment ([1]; ALDH1+, 0.1 μM): 113%
Cell Viability (%) Following 4-Day Treatment ([1]; ALDH1+, 1 μM): 121%
Cell Viability (%) Following 4-Day Treatment ([1]; ALDH1+, 10 μM): 99%
Cell Viability (%) Following 4-Day Treatment ([1]; ALDH1+, 100 μM): 3%
Cell Viability (%) Following 4-Day Treatment ([1]; ALDH1−, 0.1 μM): 64%
Cell Viability (%) Following 4-Day Treatment ([1]; ALDH1−, 1 μM): 100%
Cell Viability (%) Following 4-Day Treatment ([1]; ALDH1−, 10 μM): 64%
Cell Viability (%) Following 4-Day Treatment ([1]; ALDH1−, 100 μM): 2%
Cell Viability (%) Following 4-Day Treatment ([1]; Unsorted, 0.1 μM): 92%
Cell Viability (%) Following 4-Day Treatment ([1]; Unsorted, 1 μM): 90%
Cell Viability (%) Following 4-Day Treatment ([1]; Unsorted, 10 μM): 93%
Cell Viability (%) Following 4-Day Treatment ([1]; Unsorted, 100 μM): 7%

CCN(CC)c1ccc(C=O)cc1 [DEAB]
ALDH1 activity by fluorescence microscopy (ALDH1): green fluorescence that was reduced

CC[C@@H](C(=O)[C@@H](C)[C@@H](O)[C@H](C)[C@@H]1O[C@@H]([C@@H](CC)C(=O)O)CC[C@@H]1C)[C@H]1O[C@]2(C=C[C@@H](O)[C@]3(CC[C@@](C)([C@H]4CC[C@](O)(CC)[C@H](C)O4)O3)O2)[C@H](C)C[C@@H]1C [Salinomycin, salinomycin]
chemo-resistance of EMT cells to the drug [2]: did not exhibit chemo-resistant ability
viability at 0.01 µM [1, 6]: 54%
viability at 0.1 µM [1, 3]: 55%
viability at 1 µM [1, 4]: 66%
viability at 10 µM [1, 5]: 0%
viability at 0.01 µM [1, 10]: 23%
viability at 0.1 µM [1, 7]: 18%
viability at 1 µM [1, 8]: 42%
viability at 10 µM [1, 9]: 0%
viability at 0.01 µM [1, 13]: 36%
viability at 0.1 µM [1, 11]: 41%
viability at 1 µM [1, 12]: 66%
viability at 10 µM ([1]; read-out: Cell Viability (%) Following 4-Day Treatment, Unsorted, 10 μM): 0%

Like-named read-outs stand apart in the source and are kept apart here.
